Source: publication PMC4336329 (PLoS ONE, 2015)
The campaign covered roughly 310,000 compounds. About 2,200 (0.71%) showed an effect of 50% or more. Effects have a minus sign here. The list shows a part of the results.

target: human ether-à-go-go-related gene (hERG) potassium channel (human, UniProt Q12809); assay: primary screen, population patch clamp on CHO cells stably expressing hERG
Sequence (Q12809 whole entry, looked up): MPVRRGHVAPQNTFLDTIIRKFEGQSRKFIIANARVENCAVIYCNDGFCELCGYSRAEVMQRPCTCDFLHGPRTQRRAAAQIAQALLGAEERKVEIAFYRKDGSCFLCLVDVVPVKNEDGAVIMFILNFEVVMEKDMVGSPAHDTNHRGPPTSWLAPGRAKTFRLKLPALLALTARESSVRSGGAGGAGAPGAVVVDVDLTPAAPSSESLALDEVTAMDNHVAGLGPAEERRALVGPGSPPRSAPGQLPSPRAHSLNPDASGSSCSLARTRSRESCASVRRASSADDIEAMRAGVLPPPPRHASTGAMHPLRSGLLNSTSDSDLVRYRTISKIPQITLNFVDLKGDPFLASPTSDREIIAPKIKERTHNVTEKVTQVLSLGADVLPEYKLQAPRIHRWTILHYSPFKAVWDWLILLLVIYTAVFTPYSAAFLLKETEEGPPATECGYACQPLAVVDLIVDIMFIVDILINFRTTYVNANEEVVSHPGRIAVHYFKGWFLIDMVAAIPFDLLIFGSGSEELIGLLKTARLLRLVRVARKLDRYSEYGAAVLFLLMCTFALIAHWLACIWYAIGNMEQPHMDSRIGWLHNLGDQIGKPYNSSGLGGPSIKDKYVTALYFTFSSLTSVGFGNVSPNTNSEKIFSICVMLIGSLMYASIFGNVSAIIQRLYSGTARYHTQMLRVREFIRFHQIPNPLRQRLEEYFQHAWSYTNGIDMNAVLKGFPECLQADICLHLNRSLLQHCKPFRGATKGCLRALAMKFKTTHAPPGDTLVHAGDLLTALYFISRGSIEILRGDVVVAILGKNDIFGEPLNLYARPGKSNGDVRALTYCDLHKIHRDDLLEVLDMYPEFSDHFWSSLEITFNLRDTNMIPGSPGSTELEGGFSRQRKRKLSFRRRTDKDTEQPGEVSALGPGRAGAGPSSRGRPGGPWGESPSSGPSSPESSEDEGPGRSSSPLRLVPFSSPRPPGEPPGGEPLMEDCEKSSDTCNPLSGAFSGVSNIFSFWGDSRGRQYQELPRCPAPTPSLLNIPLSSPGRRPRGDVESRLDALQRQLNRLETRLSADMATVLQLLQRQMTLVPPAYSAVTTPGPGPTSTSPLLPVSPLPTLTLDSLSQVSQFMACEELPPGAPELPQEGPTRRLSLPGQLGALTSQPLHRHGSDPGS

SMILES	hERG current change (%, negative = inhibition) at 1uM [%]
O=C(Nc1ccc(Cl)cc1)Nc1nnc(CSc2ccc(Cl)cc2)s1	-5.41
Cc1ccc(S(=O)(=O)Nc2ccccc2-c2nc3ccccc3[nH]c2=O)cc1	-2.57
COc1cc(CSc2nc(-c3ccccc3)cc(=O)[nH]2)cc(OC)c1	10.4
CC1Cc2cc(S(=O)(=O)N3CCC(C(=O)N4CCN(c5ccccc5F)CC4)CC3)ccc2N1C(=O)C1CC1 (stereo not shown)	8.82
COc1ccc([C@H]2CC(=O)C=C(c3ccnc4ccc(Cl)cc34)C2)cc1	-19.2
O=C(NC1CCCCC1)c1cc(S(=O)(=O)N2CCOCC2)ccc1Cl	6.31
NC(=O)C1=C[C@@H](c2ccc(Br)cc2)C[C@@H](OCCCCO)O1	7.17
COc1cccc(N=NC2C(=O)N(C(N)=S)N=C2C)c1 (stereo not shown)	6.71
CCc1cc2c(=O)[nH]c(Cc3ccc(OC)cc3)nc2s1	1.88
Cc1cc2oc(=O)cc(C)c2cc1NC(=O)CCC(=O)O	5.11
CCOc1ccc2nc(NC(=O)CSc3nc4c(c(=O)n(C)c(=O)n4C)n3CC)sc2c1	9.1
C=CCSc1nc(C)c(CCCC)c(=O)[nH]1	6.77
CC(=O)NNc1cc(=O)c2c(=O)n(C)c(=O)n(C)c2[nH]1	7.25
O=C(COC(=O)c1cccc(S(=O)(=O)N2CCc3ccccc3C2)c1)NCc1ccco1	-9.43
Cc1[nH]nc(NNC(=O)c2ccccc2)c1[N+](=O)[O-]	12.3
Cc1c(C)n(CCO)c2ncnc(Nc3ccc(F)cc3)c12	11.7
COc1cc(C(=O)N2CCN(C3CCCCC3)CC2)cc(OC)c1OC.O=C(O)C(=O)O	14.5
O=C(CCc1nc2ccccc2c(=O)[nH]1)NNC(=O)COc1ccc(Br)cc1	3.51
C[C@@]12C(=O)N(CC3CC3)CC(=O)N1[C@H](/C=C/c1ccccc1)[C@@H]1C(=O)N(c3ccccc3)C(=O)[C@@H]12	3.01
Cc1ccc(S(=O)(=O)NC(CC(C)C)C(=O)NCC(c2ccco2)N2CCCCC2)cc1 (stereo not shown)	13.2
O=C(CCc1c[nH]c2ccccc12)OCc1cccc(C(F)(F)F)c1	12.7
CCOc1ccc(C2/C(=C(\O)c3cccc(OC)c3)C(=O)C(=O)N2c2ccccn2)cc1OC (stereo not shown)	4.78

SMILES	hERG current change (%, negative = inhibition) at 1uM [%]
Cc1ccc(C(=O)OCC(=O)NCCC2=CCCCC2)cc1N	12.5
O=C(NCc1ccccn1)c1ccc(OC2CCN(Cc3ccccc3)CC2)cc1	-4.72
CC(C)Cc1cc(C(=O)N2CCN(c3ccc(F)cc3)CC2)no1	-6.51
N/C(=N\OC(=O)c1ccccc1Br)c1ccc([N+](=O)[O-])cc1	6.19
C[C@@H](CSc1ccccc1)CN1CC[C@H](NC(=O)OCc2ccccc2)CCC1=O	10.5
O=C(N/N=C/c1ccsc1)c1ccc2ccccc2n1	8.48
C=CCn1c(O)c(C(=O)CCCCCC)c(=O)[nH]c1=O	16.7
CC1CC(C)CN(CC(=O)c2cccs2)C1 (stereo not shown)	-7.65
COCCNc1ccc(-c2nn(C)c(=O)c3ccccc23)cc1[N+](=O)[O-]	17
O=c1c2ccccc2nc(/C=C/c2ccc([N+](=O)[O-])o2)n1CCCO	-23.5
CC(C)CCNC(=O)C1CCCN(S(=O)(=O)c2ccc(F)cc2)C1 (stereo not shown)	6.89
CC(C)(C)NC(=O)C(c1ccco1)N(C(=O)Cn1nnc(-c2ccc(F)cc2)n1)c1cccc(F)c1 (stereo not shown)	11.1
Cc1c(C(=O)N2CCCCC2)sc(N)c1C#N	13.9
O=C(CCS(=O)(=O)c1ccccc1)Nc1nnc(-c2ccco2)o1	12.6
O=C(CC1NCCNC1=O)Nc1cccc([N+](=O)[O-])c1 (stereo not shown)	6.97
Cc1ccc(OCCNC(=O)c2ccccc2SCC(=O)N2CCCC2)cc1	30.7
CN1CCN(CCCCC(=O)c2ccccc2)CC1.Cl	11.1
Cc1cccc(C)c1NC(=O)c1cccn(Cc2ccc3c(c2)OC(F)(F)O3)c1=O	8.62
O=C(NCc1ccco1)c1ccc(S(=O)(=O)N2CCOCC2)cc1	18
OC1CCN(Cc2ccc3ccccc3c2)CC1	14.3
COc1ccc(NC(=O)c2ccc3c(c2)C(=O)N(Cc2cccnc2)C3=O)cc1	15
